In the antibiotic and cytotoxicity screens of Wong et al. (2023):
Some of the results follow.

Tests used:
[1] = tested on: HSkMC (human skeletal muscle cells); assay: cytotoxicity call (relative viability < 0.9); settings: 10 µM
[2] = tested on: S. aureus RN4220; assay: growth inhibition call (relative growth <= 0.2); settings: 50 µM

Row | Compound | cytotoxicity call [1] | growth inhibition call [2]
1 | O=C1C[C@@H](c2ccc(O[C@@H]3O[C@H](CO)[C@@H](O)[C@H](O)[C@H]3O)cc2)Oc2cc(O)ccc21 | inactive | inactive
2 | Cc1[nH]c(=O)[nH]c(=O)c1S(=O)(=O)N1CCC[C@H](C(=O)NCc2ccc3c(c2)OCO3)C1 | inactive | inactive
3 | COc1cc2c(cc1OC)Cc1cc(OC)c(OC)cc1Cc1cc(OC)c(OC)cc1C2 | inactive | inactive
4 | NNC(=S)NCc1cccs1 | inactive | inactive
5 | C[C@@H]1CCCCO[C@H](CN(C)Cc2ccncc2)[C@H](C)CN([C@@H](C)CO)C(=O)c2cc(NC(=O)CCC(F)(F)F)ccc2O1 | inactive | inactive
6 | C[C@@H]1CCCCO[C@H](CN(C)Cc2ccc(Cl)c(Cl)c2)[C@H](C)CN([C@@H](C)CO)C(=O)c2cc(NC(=O)C3CCCCC3)ccc2O1 | inactive | inactive
7 | O=C1O[C@H](c2ccccc2)[C@H](c2ccccc2)N2[C@H]1[C@@H](C(=O)O)[C@]1(C(=O)Nc3ccc(C#CC4=CCCCC4)cc31)[C@H]2c1ccc(O)cc1 | inactive | active
8 | COCC1=C(C(=O)OC(C)OC(=O)OC(C)C)N2C(=O)C(NC(=O)C(=NOC)c3csc(N)n3)C2SC1 (stereo unspecified) | inactive | inactive
